This list holds what a sample rich in strong results left over.

One assay has as its system Tyrosine-protein kinase ABL1 (Homo sapiens), P00519 [T315I]. As to conditions: at 1 µM.
In general, inhibition refers to the relative decrease from the control value, in per cent. Take `O=C1NC(=O)C(c2cccc([N+](=O)[O-])c2)=C1Nc1cc(Cl)c(O)c(Cl)c1`: the inhibition is 0.69%.

Turning to `Cc1cccc(Oc2nccc(-c3c(-c4ccc(F)cc4)ncn3C3CCNCC3)n2)c1C`, the inhibition worked out at 3.42%.

As to `Fc1ccc(-c2ncn(C3CCNCC3)c2-c2ccnc(Oc3ccc(Cl)cc3)n2)cc1`, the inhibition came out at 1.07%.

On to `Fc1ccc(-c2ncn(C3CCNCC3)c2-c2ccnc(Oc3cccc(F)c3)n2)cc1`, for which the inhibition amounted to 2.15%.

Turning to `COc1ccccc1C1=C(Nc2ccccc2)C(=O)NC1=O`, the inhibition came out at 20.1%.

As to `O=C1NC(=O)C(c2ccccc2)=C1Nc1ccccc1`, the inhibition worked out at 6.54%.

For the compound `NC(=O)CCc1ccccc1Oc1nccc(-c2c(-c3ccc(F)cc3)ncn2C2CCNCC2)n1`, the inhibition is -0.56%.

As for `CS(=O)(=O)c1ccc(Oc2nccc(-c3c(-c4ccc(F)cc4)ncn3C3CCNCC3)n2)cc1`, the inhibition is 3.6%.

For the compound `COc1ccccc1Oc1nccc(-c2c(-c3ccc(F)cc3)ncn2C2CCNCC2)n1`, the inhibition worked out at 2.41%.

`Fc1ccc(-c2ncn(C3CCNCC3)c2-c2ccnc(Oc3cccc(C(F)(F)F)c3)n2)cc1`: the inhibition was determined as 4.06%.

For the compound `O=C(O)c1ccc(Oc2nccc(-c3c(-c4ccc(F)cc4)ncn3C3CCNCC3)n2)cc1`, the inhibition was found to be 1.63%.

`CC(C)(C)c1ccc(Oc2nccc(-c3c(-c4ccc(F)cc4)ncn3C3CCNCC3)n2)cc1`: the inhibition was 4.41%.

On to `Fc1ccc(Oc2nccc(-c3c(-c4ccc(F)cc4)ncn3C3CCNCC3)n2)cc1`, for which the inhibition turned out to be 0.06%.

`O=C1NC(=O)C(c2ccccc2Cl)=C1Nc1cc(Cl)c(O)c(Cl)c1`: the inhibition was determined as 4.94%.

In the next assay the test system is Tyrosine-protein kinase ABL1 (Homo sapiens), P00519 [Y253F]. The settings on record: at 0.1 µM.
In the case of `O=C1NC(=O)C(c2cccc([N+](=O)[O-])c2)=C1Nc1cc(Cl)c(O)c(Cl)c1`, the inhibition amounted to 0.46%.

With `Cc1cccc(Oc2nccc(-c3c(-c4ccc(F)cc4)ncn3C3CCNCC3)n2)c1C`, the inhibition was determined as 2.09%.

As for `Fc1ccc(-c2ncn(C3CCNCC3)c2-c2ccnc(Oc3ccc(Cl)cc3)n2)cc1`, the inhibition stood at 2.57%.

As to `Fc1ccc(-c2ncn(C3CCNCC3)c2-c2ccnc(Oc3cccc(F)c3)n2)cc1`, the inhibition was 4.09%.

On to `COc1ccccc1C1=C(Nc2ccccc2)C(=O)NC1=O`, for which the inhibition was 2.52%.

On to `O=C1NC(=O)C(c2ccccc2)=C1Nc1ccccc1`, for which the inhibition is 5.67%.

For the compound `NC(=O)CCc1ccccc1Oc1nccc(-c2c(-c3ccc(F)cc3)ncn2C2CCNCC2)n1`, the inhibition is -0.62%.

Consider `CS(=O)(=O)c1ccc(Oc2nccc(-c3c(-c4ccc(F)cc4)ncn3C3CCNCC3)n2)cc1`, for which the inhibition is 4.05%.

Regarding `COc1ccccc1Oc1nccc(-c2c(-c3ccc(F)cc3)ncn2C2CCNCC2)n1`, the inhibition worked out at 1.99%.

For the compound `Fc1ccc(-c2ncn(C3CCNCC3)c2-c2ccnc(Oc3cccc(C(F)(F)F)c3)n2)cc1`, the inhibition amounted to 5.27%.

With `O=C(O)c1ccc(Oc2nccc(-c3c(-c4ccc(F)cc4)ncn3C3CCNCC3)n2)cc1`, the inhibition turned out to be 2.38%.

With `CC(C)(C)c1ccc(Oc2nccc(-c3c(-c4ccc(F)cc4)ncn3C3CCNCC3)n2)cc1`, the inhibition amounted to 4.32%.

In the case of `Fc1ccc(Oc2nccc(-c3c(-c4ccc(F)cc4)ncn3C3CCNCC3)n2)cc1`, the inhibition is 3.57%.

Take `O=C1NC(=O)C(c2ccccc2Cl)=C1Nc1cc(Cl)c(O)c(Cl)c1`: the inhibition was 4.61%.

A further assay has the same test system. As to conditions: at 1 µM.
As to `O=C1NC(=O)C(c2cccc([N+](=O)[O-])c2)=C1Nc1cc(Cl)c(O)c(Cl)c1`, the inhibition turned out to be 0.15%.

As to `Cc1cccc(Oc2nccc(-c3c(-c4ccc(F)cc4)ncn3C3CCNCC3)n2)c1C`, the inhibition is 3.03%.

Regarding `Fc1ccc(-c2ncn(C3CCNCC3)c2-c2ccnc(Oc3ccc(Cl)cc3)n2)cc1`, the inhibition was 1.98%.

As to `Fc1ccc(-c2ncn(C3CCNCC3)c2-c2ccnc(Oc3cccc(F)c3)n2)cc1`, the inhibition came out at 5.95%.

On to `COc1ccccc1C1=C(Nc2ccccc2)C(=O)NC1=O`, for which the inhibition was 8.19%.

As for `O=C1NC(=O)C(c2ccccc2)=C1Nc1ccccc1`, the inhibition worked out at 8.42%.

With `NC(=O)CCc1ccccc1Oc1nccc(-c2c(-c3ccc(F)cc3)ncn2C2CCNCC2)n1`, the inhibition was -0.03%.

Regarding `CS(=O)(=O)c1ccc(Oc2nccc(-c3c(-c4ccc(F)cc4)ncn3C3CCNCC3)n2)cc1`, the inhibition was determined as 3.8%.

Regarding `COc1ccccc1Oc1nccc(-c2c(-c3ccc(F)cc3)ncn2C2CCNCC2)n1`, the inhibition came out at 3.77%.

`Fc1ccc(-c2ncn(C3CCNCC3)c2-c2ccnc(Oc3cccc(C(F)(F)F)c3)n2)cc1`: the inhibition turned out to be 5.56%.

With `O=C(O)c1ccc(Oc2nccc(-c3c(-c4ccc(F)cc4)ncn3C3CCNCC3)n2)cc1`, the inhibition stood at 1.66%.

As to `CC(C)(C)c1ccc(Oc2nccc(-c3c(-c4ccc(F)cc4)ncn3C3CCNCC3)n2)cc1`, the inhibition came out at 5.3%.

In the case of `Fc1ccc(Oc2nccc(-c3c(-c4ccc(F)cc4)ncn3C3CCNCC3)n2)cc1`, the inhibition is 1.3%.

Take `O=C1NC(=O)C(c2ccccc2Cl)=C1Nc1cc(Cl)c(O)c(Cl)c1`: the inhibition came out at 8.29%.

The next assay addresses Tyrosine-protein kinase ABL1 (Homo sapiens) (UniProt P00519). The settings on record: at 0.1 µM.
Regarding `O=C1NC(=O)C(c2cccc([N+](=O)[O-])c2)=C1Nc1cc(Cl)c(O)c(Cl)c1`, the inhibition was 2.47%.

`Cc1cccc(Oc2nccc(-c3c(-c4ccc(F)cc4)ncn3C3CCNCC3)n2)c1C`: the inhibition is 3.52%.

Regarding `Fc1ccc(-c2ncn(C3CCNCC3)c2-c2ccnc(Oc3ccc(Cl)cc3)n2)cc1`, the inhibition was 0.14%.

Turning to `Fc1ccc(-c2ncn(C3CCNCC3)c2-c2ccnc(Oc3cccc(F)c3)n2)cc1`, the inhibition is 7.47%.

Take `COc1ccccc1C1=C(Nc2ccccc2)C(=O)NC1=O`: the inhibition was 5.95%.

As to `O=C1NC(=O)C(c2ccccc2)=C1Nc1ccccc1`, the inhibition is 8.44%.

As to `NC(=O)CCc1ccccc1Oc1nccc(-c2c(-c3ccc(F)cc3)ncn2C2CCNCC2)n1`, the inhibition is -1.75%.

For `CS(=O)(=O)c1ccc(Oc2nccc(-c3c(-c4ccc(F)cc4)ncn3C3CCNCC3)n2)cc1`, the inhibition came to 3.57%.

Regarding `COc1ccccc1Oc1nccc(-c2c(-c3ccc(F)cc3)ncn2C2CCNCC2)n1`, the inhibition amounted to 4.06%.

Consider `Fc1ccc(-c2ncn(C3CCNCC3)c2-c2ccnc(Oc3cccc(C(F)(F)F)c3)n2)cc1`, for which the inhibition was 6.03%.

As to `O=C(O)c1ccc(Oc2nccc(-c3c(-c4ccc(F)cc4)ncn3C3CCNCC3)n2)cc1`, the inhibition was found to be 4.66%.

As to `CC(C)(C)c1ccc(Oc2nccc(-c3c(-c4ccc(F)cc4)ncn3C3CCNCC3)n2)cc1`, the inhibition is 2.32%.

With `Fc1ccc(Oc2nccc(-c3c(-c4ccc(F)cc4)ncn3C3CCNCC3)n2)cc1`, the inhibition is -0.98%.

Regarding `O=C1NC(=O)C(c2ccccc2Cl)=C1Nc1cc(Cl)c(O)c(Cl)c1`, the inhibition turned out to be 3.48%.

Source of the values: ChEMBL document CHEMBL1961873, “Compounds: GSK PKIS; Assays: Nanosyn kinase panel” (2012).
